In all, about 45,000 compounds went through this assay and about 200 (0.44%) were called active. This list was built around the results that the source calls inconclusive (neither active nor inactive); the mix of calls is not that of the screen. Calls come from the whole dose curve; as a rule, active = well fitted activation curve with a large enough effect; inconclusive = small, poorly fitted or top-dose-only effect; inactive = no such curve, though single readings can be large or run the other way. Potencies of inconclusive entries are doubtful fits and often do not repeat.
Experiment: qHTS of TDP-43 Inhibitors: NCGC Sytravon Library Screen; note: nearly all actives have a fitted effect of over 55% in size; for growth rescue (activation): 0% is about no effect
Settings: yeast TDP-43 toxicity rescue, BacTiter-Glo growth, 24 h; growth rescue (activation): at 46.1 µM (top of the series)
Procedure, shortened: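 TDP-43-expressing yeast, pregrown in raffinose, seeded at OD600 0.02 in galactose medium with compound for 24 hr at 30 deg C. Growth read by BacTiter-Glo luminescence, so rescue of toxicity appears as activation.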
Potency is the fitted concentration of half-maximal effect; tags give direction and shape of the fitted curve.

| Compound | Potency | growth rescue (activation) |
| --- | --- | --- |
| CCOc1cccc(C(=O)Nc2cccnc2)c1 | inconclusive: 35.5 µM [activator, single point] | – |
| O=c1c2cn[nH]c2nc(SCc2c(F)cccc2F)n1-c1ccc(Cl)cc1 | inconclusive: 35.5 µM [activator, single point] | – |
| Cc1ccc(-n2cc(-c3ccc([N+](=O)[O-])cc3)[nH]c2=S)c(C)c1 | inconclusive: 12.6 µM [activator, partial curve, poor fit] | – |
| COc1cc2ccccc2cc1C(=O)N1CCc2ccccc21 | inconclusive: 15.8 µM [activator, partial curve, poor fit] | – |
| O=C(NCC1OCCc2ccccc21)c1cc(COc2c(F)cccc2F)on1 (stereo not drawn) | inconclusive: 20 µM [activator, partial curve, poor fit] | – |
| O=C(CCc1c[nH]c2ccccc12)OCc1cccc([N+](=O)[O-])c1 | inconclusive: 17.8 µM [activator, partial curve, poor fit] | – |
| O=C(Nc1ncc2c(n1)-c1ccccc1CC2)c1cccs1 | inconclusive: 15.8 µM [activator, partial curve, poor fit] | – |
| CSc1cccc(NC(=O)c2cnn3ccccc23)c1 | inconclusive: 25.1 µM [activator, single point] | – |
| NC(=S)N/N=C/c1c(O)c(Br)cc2oc3c(c12)CCCC3 | inconclusive: 11.2 µM [activator, single point] | – |
| COc1ccc(C)cc1N1C(=N)/C(=C2/Nc3ccccc3S2)C(c2ccccc2)C1=O (stereo not drawn) | inconclusive: 17.8 µM [activator, single point] | – |
| c1ccc(-c2cc3c(NCC4COc5ccccc5O4)ncnc3s2)cc1 (stereo not drawn) | inconclusive: 17.8 µM [activator, partial curve, poor fit] | – |
| O=C1COc2ccc(C(=O)CCl)cc2N1 | inconclusive: 15.8 µM [activator, partial curve, poor fit] | – |
| COc1ccc(NC(=O)CNC(=O)c2nn(-c3ccc(OC)c(Cl)c3)c(=O)c3ccccc23)c(OC)c1 | inactive | – |
| O=C(Nc1cc(S(=O)(=O)N2CCOCC2)ccc1Cl)c1cc2ccccc2o1 | inactive | – |
| COc1ccc(NC(=O)C2Cc3c(-c4cccc(F)c4)ccnc3O2)cn1 (stereo not drawn) | – | inconclusive: 64.4% [activator] |
| CCOC(=O)c1cc2ccc(OC)c(OC)c2c(=O)s1 | inconclusive: 12.6 µM [activator, partial curve, poor fit] | – |
| CC1CCC(NC(=O)C2(C)Cc3ccccc3C(=O)N2Cc2ccc(Cl)cc2)CC1 (stereo not drawn) | inconclusive: 20 µM [activator, partial curve, poor fit] | – |
| CCCOc1ccc(C(=O)O)cc1 | inconclusive: 8.91 µM [activator, partial curve] | – |
| Cc1cccc(OCCC(=O)Nc2ccc(F)c(Cl)c2)c1 | active: 12.6 µM | – |
| C[C@]12CCC3C(CC[C@H]4CC(O)CC[C@]34C)C1CC/C2=N/NC(=O)c1ccncc1 (stereo partly drawn) | inconclusive: 15.8 µM [activator, partial curve, poor fit] | – |
| CCOC(=O)C(=Cc1ccccc1OC)C(=O)OCC | inconclusive: 12.6 µM [activator, partial curve, poor fit] | – |
| COc1ccc(CNC(=O)N2CCc3ccccc3C2)cc1Cl | inconclusive: 17.8 µM [activator, single point] | – |

| Compound | Potency | growth rescue (activation) |
| --- | --- | --- |
| Cc1ccc(CSCC(=O)Nc2ccc(F)cc2)cc1 | inconclusive: 14.1 µM [activator, partial curve] | – |
| N/C(=N\OC(=O)c1cccc(Cl)c1)c1cccnc1 | active: 11.2 µM | – |
| CCOc1ccccc1NC(=O)COC(=O)/C=C/c1cccs1 | inactive | – |
| COc1cc(C(O)c2nc(-c3ccccc3)cs2)ccc1F (stereo not drawn) | – | inconclusive: 136% [activator] |
| Cc1ccc(-c2csc(C(O)c3ccccc3)n2)cc1C (stereo not drawn) | – | inconclusive: 105% [activator] |
| CCOc1cc(/C=C2\C(=O)ON=C2c2ccccc2)cc(Br)c1O | inconclusive: 35.5 µM [activator, single point] | – |
| O=S(=O)(Cc1ccccc1)N(O)c1ccccc1 | inactive | – |
| O=C(NN=C1CCCC1)c1[nH]c2ccc(Br)cc2c1-c1ccccc1 | inconclusive: 25.1 µM [activator, single point] | – |
| Cc1ccc(CN(C(=O)c2ccccc2Br)C2CCS(=O)(=O)C2)o1 (stereo not drawn) | inactive | – |
| CCN(CC)S(=O)(=O)c1ccc(NC(=O)c2ccc(Cl)nc2)cc1 | inconclusive: 14.1 µM [activator, partial curve, poor fit] | – |
| COc1ccc(-c2[nH]ncc2C(=O)NCc2cccc(F)c2)cc1 | inactive | – |
| COc1ccccc1-c1nc(C#N)c(N2CCN(c3ccccc3)CC2)o1 | inconclusive: 22.4 µM [activator, partial curve, poor fit] | – |
| O=C(CSc1nc(-c2ccccc2)nc2c1CCCC2)N1CCOCC1 | inconclusive: 3.16 µM [activator, partial curve, poor fit] | – |
| CC1CCC/C(=N/Nc2ccc([N+](=O)[O-])cc2[N+](=O)[O-])C1 (stereo not drawn) | inconclusive: 35.5 µM [activator, partial curve, poor fit] | – |
| Cc1ccc(F)cc1NCC(=O)Nc1ccc(Br)cc1 | inconclusive: 11.2 µM [activator, partial curve, poor fit] | – |
| O=C(NC(=S)Nc1ccc2c(c1)OCCO2)c1cccc(Br)c1 | active: 12.6 µM | – |
| O=C1CC(Cc2ccccc2)C(=O)N1CCc1ccc2c(c1)OCO2 (stereo not drawn) | inconclusive: 12.6 µM [activator, partial curve, poor fit] | – |
| CC1(C(=O)NS(=O)(=O)c2cccc(Cl)c2)CCN1C(=O)c1ccccc1 (stereo not drawn) | inactive | – |
| O=C1CCCCC1Sc1nnc(-c2ccc3c(c2)OCO3)o1 (stereo not drawn) | inconclusive: 15.8 µM [activator, single point] | – |
| Cc1cc2c(=O)n(C)c(SCC(=O)Nc3ccc(F)cc3)nc2s1 | inactive | – |
| O=C(O)Cn1c(-c2cccs2)cc2cc(Cl)ccc21 | inconclusive: 20 µM [activator, single point] | – |

From PubChem BioAssay AID1347073 (National Center for Advancing Translational Sciences (NCATS), 2019)
